# In all, about 270,000 compounds went through this assay and about 5,800 (2.1%) were called active. The shares of active, inactive and inconclusive entries below differ from those in the screen. Calls come from the whole dose curve; as a rule, active = well fitted inhibition curve with a large enough effect; inconclusive = small, poorly fitted or top-dose-only effect; inactive = flat fitted curve, though single readings scatter. A potency beside an inconclusive call is a rough fit, not a confirmed value.
# Biological target: Microtubule-associated protein tau (Homo sapiens) (UniProt P10636)
# UniProt P10636, sequence (P10636 whole entry, looked up): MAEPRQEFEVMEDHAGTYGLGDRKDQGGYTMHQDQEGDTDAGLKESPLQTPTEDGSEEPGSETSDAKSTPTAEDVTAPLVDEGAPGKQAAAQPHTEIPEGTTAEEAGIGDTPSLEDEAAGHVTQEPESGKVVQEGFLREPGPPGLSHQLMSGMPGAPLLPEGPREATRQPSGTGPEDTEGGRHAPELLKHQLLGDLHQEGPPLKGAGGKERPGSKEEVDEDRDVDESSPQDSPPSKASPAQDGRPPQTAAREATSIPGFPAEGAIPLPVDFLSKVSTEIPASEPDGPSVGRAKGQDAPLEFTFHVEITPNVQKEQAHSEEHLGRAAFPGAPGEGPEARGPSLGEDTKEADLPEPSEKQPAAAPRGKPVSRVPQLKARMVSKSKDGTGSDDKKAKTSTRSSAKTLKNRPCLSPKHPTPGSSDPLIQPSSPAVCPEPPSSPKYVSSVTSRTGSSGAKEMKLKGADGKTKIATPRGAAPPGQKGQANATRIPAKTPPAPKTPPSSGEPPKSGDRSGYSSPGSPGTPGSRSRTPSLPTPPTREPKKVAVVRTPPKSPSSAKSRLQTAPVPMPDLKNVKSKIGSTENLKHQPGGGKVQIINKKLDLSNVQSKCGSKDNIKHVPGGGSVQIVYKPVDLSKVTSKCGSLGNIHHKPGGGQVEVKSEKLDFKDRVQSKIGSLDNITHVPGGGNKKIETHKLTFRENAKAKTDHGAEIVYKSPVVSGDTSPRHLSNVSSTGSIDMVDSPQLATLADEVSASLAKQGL
# Assay: qHTS for Inhibitors of Tau Fibril Formation, Thioflavin T Binding; note: nearly all actives have a fitted effect of over 55% in size
# Details: recombinant tau K18 P301L (four-repeat tau fragment), heparin-induced fibrillization, ThT fluorescence; series mostly up to 57.4 µM
# How it was run: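 Heparin-induced fibrillization of the P301L-mutant K18 repeat-domain fragment of human tau was followed by ThT binding in quantitative high-throughput format.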
# Potency is the fitted concentration of half-maximal effect; tags give direction and shape of the fitted curve.
row,Structure (SMILES),Potency
1,O=C(C1CCC(Cn2c(=O)c3sccc3n(Cc3ccc(F)cc3)c2=O)CC1)N1CCOCC1 (stereo unspecified),inactive
2,COC(=O)c1cc2nc(-c3ccc(OC)c(OC)c3)cc(C(F)(F)F)n2n1,"inconclusive: 17.8 µM [inhibitor, partial curve]"
3,CCOC(=O)C1=C(N)Oc2cc(C)[nH]c(=O)c2C1c1ccncc1 (stereo unspecified),inactive
4,Cc1ccn2cc(-c3cccc([N+](=O)[O-])c3)nc2c1,"inconclusive: 20 µM [inhibitor, partial curve]"
5,C=CCn1c(CSc2nc3ccccc3s2)nnc1SCC(=O)NCc1ccco1,"inconclusive: 28.2 µM [inhibitor, partial curve]"
6,Cc1ccc(C(=O)N2CCSC2=S)cc1,"inconclusive: 15.8 µM [inhibitor, partial curve, poor fit]"
7,O=C(CSc1cccc[n+]1[O-])Nc1ccc2c(c1)OCO2,inactive
8,Cc1ccc(-n2ncc(C(=O)NCCCN3CCc4ccccc4C3)c2C2CCN(C(=O)OC(C)(C)C)CC2)c(C)c1,inactive
9,Cc1ccc(/C=C2/SC(=O)NC2=S)o1,active: 4.47 µM
10,CCOC(=O)c1noc2ncn(CC(=O)Nc3ccccc3OC)c(=O)c12,inactive
11,COc1ccc(-c2nc3cccc(C)n3c2NCc2ccco2)cc1OC,"inconclusive: 31.6 µM [inhibitor, partial curve]"
12,COc1cccc(CNC(=O)CCc2c(C)c3ccc(O)c(C)c3oc2=O)c1,inactive
13,COc1ccccc1CN(Cc1cc2cc(C)cc(C)c2[nH]c1=O)Cc1nnnn1CC1CCCO1 (stereo unspecified),inactive
14,COc1ccc2cc(C(c3nnnn3Cc3ccc(F)cc3)N3CCCCCC3)c(=O)[nH]c2c1 (stereo unspecified),"inconclusive: 39.8 µM [inhibitor, single point]"
15,COc1cc(NS(=O)(=O)c2ccc(C)cc2C)cc(OC)c1OC,inactive
16,CN1/C(=c2/s/c(=C3/C(=O)N(c4ccccc4)NC3=Nc3ccccc3)n(C)c2=O)C(C)(C)c2ccccc21,active: 7.94 µM
17,CN(C)/N=C/c1c(O)ccc2ccccc12,"inconclusive: 35.5 µM [inhibitor, partial curve, poor fit]"
18,CN(C)c1cccc(/C=C(\C#N)c2ccccc2)c1,"inconclusive: 7.94 µM [inhibitor, partial curve]"
19,Clc1ccc(Cc2noc(CN3CCN(c4ccccc4)CC3)n2)c(Cl)c1,"inconclusive: 4.47 µM [inhibitor, partial curve]"
20,CCCCOc1ccc(C2C(=O)N(C3CCCCC3)CC(=O)N2CCCC)cc1 (stereo unspecified),inactive
21,COc1ccc(Cc2c3cc(OC)c(OC)cc3cc[n+]2C)cc1OC,inactive
